# Test results taken from the supplement of paper PMC8728848.
# This is one part of the list.
# Key:
# Test in all cases: glycan array binding signal (z-score within array); higher = stronger binding
# Settings in all cases: glycan notation: IUPAC condensed, linker removed
# [1] = target: Kdn(a2-3)Gal(b1-3)GlcNAc
# How it was run: (§1)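 Negative Z-scores can be read as non-binding. The Z-score is calculated within each array and then averaged across arrays of one protein sequence at different concentrations or buffers and across linkers. Arrays, 3228 in all, were curated from the Consortium for Functional Glycomics database and kept only where the protein sequence was available.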
# [2] = target: Kdn(a2-3)Gal(b1-4)GlcNAc
# How it was run: as §1
# [3] = target: Man(a1-2)Man(a1-2)Man(a1-3)Man
# How it was run: as §1
# [4] = target: Man(a1-2)Man(a1-2)Man(a1-6)[Man(a1-3)]Man
# How it was run: as §1
# [5] = target: Man(a1-2)Man(a1-3)Man
# How it was run: as §1
# [6] = target: Man(a1-2)Man(a1-3)[Man(a1-2)Man(a1-6)]Man
# How it was run: as §1
# [7] = target: Man(a1-2)Man(a1-3)[Man(a1-2)Man(a1-6)]Man(a1-6)[Man(a1-2)Man(a1-2)Man(a1-3)]Man(b1-4)GlcNAc(b1-4)GlcNAc
# How it was run: as §1
# [8] = target: Man(a1-2)Man(a1-3)[Man(a1-2)Man(a1-6)]Man(a1-6)[Man(a1-3)[Man(a1-6)]Man(a1-6)]Man(b1-4)GlcNAc(b1-4)GlcNAc
# How it was run: as §1
# [9] = target: Man(a1-2)Man(a1-3)[Man(a1-6)]Man(a1-6)[Man(a1-2)Man(a1-3)]Man(b1-4)GlcNAc(b1-4)GlcNAc
# How it was run: as §1
# [10] = target: Man(a1-2)Man(a1-6)[Man(a1-3)]Man(a1-6)[Man(a1-2)Man(a1-2)Man(a1-3)]Man(b1-4)GlcNAc(b1-4)GlcNAc
# How it was run: as §1
# [11] = target: Man(a1-3)[Man(a1-6)]Man
# How it was run: as §1
# [12] = target: Man(a1-3)[Man(a1-6)]Man(a1-6)[Man(a1-3)]Man(b1-4)GlcNAc(b1-4)GlcNAc
# How it was run: as §1
# [13] = target: Neu5Ac(a2-3)Gal
# How it was run: as §1
# [14] = target: Neu5Ac(a2-3)Gal(b1-3)GalNAc
# How it was run: as §1
# [15] = target: Neu5Ac(a2-3)Gal(b1-3)GalNAc6S
# How it was run: as §1
# [16] = target: Neu5Ac(a2-3)Gal(b1-3)GlcNAc
# How it was run: as §1
# [17] = target: Neu5Ac(a2-3)Gal(b1-3)[Fuc(a1-4)]GlcNAc
# How it was run: as §1
# [18] = target: Neu5Ac(a2-3)Gal(b1-3)[Neu5Ac(a2-3)Gal(b1-4)]GlcNAc
# How it was run: as §1
# [19] = target: Neu5Ac(a2-3)Gal(b1-3)[Neu5Ac(a2-6)]GalNAc
# How it was run: as §1
# [20] = target: Neu5Ac(a2-3)Gal(b1-4)Glc
# How it was run: as §1
# [21] = target: Neu5Ac(a2-3)Gal(b1-4)GlcNAc
# How it was run: as §1
# [22] = target: Neu5Ac(a2-3)Gal(b1-4)GlcNAc(b1-3)Gal(b1-4)GlcNAc
# How it was run: as §1
# [23] = target: Neu5Ac(a2-3)Gal(b1-4)GlcNAc(b1-3)Gal(b1-4)GlcNAc(b1-3)Gal(b1-4)GlcNAc
# How it was run: as §1
# [24] = target: Neu5Ac(a2-3)Gal(b1-4)GlcNAc6S
# How it was run: as §1
# [25] = target: Neu5Ac(a2-3)Gal(b1-4)[Fuc(a1-3)]GlcNAc
# How it was run: as §1
# [26] = target: Neu5Ac(a2-3)Gal(b1-4)[Fuc(a1-3)]GlcNAc(b1-3)Gal
# How it was run: as §1
# [27] = target: Neu5Ac(a2-3)Gal(b1-4)[Fuc(a1-3)]GlcNAc(b1-3)Gal(b1-4)GlcNAc
# How it was run: as §1
# [28] = target: Neu5Ac(a2-3)Gal(b1-4)[Fuc(a1-3)]GlcNAc(b1-3)Gal(b1-4)[Fuc(a1-3)]GlcNAc(b1-3)Gal(b1-4)[Fuc(a1-3)]GlcNAc
# How it was run: as §1
# [29] = target: Neu5Ac(a2-3)Gal(b1-4)[Fuc(a1-3)]GlcNAc6S
# How it was run: as §1
# [30] = target: Neu5Ac(a2-3)Gal6S(b1-4)GlcNAc
# How it was run: as §1
# [31] = target: Neu5Ac(a2-3)GalNAc
# How it was run: as §1
# [32] = target: Neu5Ac(a2-3)[GalNAc(b1-4)]Gal(b1-4)Glc
# How it was run: as §1
# [33] = target: Neu5Ac(a2-3)[GalNAc(b1-4)]Gal(b1-4)GlcNAc
# How it was run: as §1
# [34] = target: Neu5Ac(a2-3)[Neu5Ac(a2-6)]GalNAc
# How it was run: as §1
# [35] = target: Neu5Ac(a2-6)Gal
# How it was run: as §1
# [36] = target: Neu5Ac(a2-6)Gal(b1-4)Glc
# How it was run: as §1
# [37] = target: Neu5Ac(a2-6)Gal(b1-4)GlcNAc
# How it was run: as §1
# [38] = target: Neu5Ac(a2-6)Gal(b1-4)GlcNAc(b1-3)Gal(b1-4)GlcNAc
# How it was run: as §1
# [39] = target: Neu5Ac(a2-6)Gal(b1-4)GlcNAc(b1-3)Gal(b1-4)[Fuc(a1-3)]GlcNAc(b1-3)Gal(b1-4)[Fuc(a1-3)]GlcNAc
# How it was run: as §1
# [40] = target: Neu5Ac(a2-6)Gal(b1-4)GlcNAc6S
# How it was run: as §1
# [41] = target: Neu5Ac(a2-6)GalNAc
# How it was run: as §1
# [42] = target: Neu5Ac(a2-8)Neu5Ac
# How it was run: as §1
# [43] = target: Neu5Ac(a2-8)Neu5Ac(a2-3)Gal(b1-4)Glc
# How it was run: as §1
# [44] = target: Neu5Ac(a2-8)Neu5Ac(a2-3)[GalNAc(b1-4)]Gal(b1-4)Glc
# How it was run: as §1
# [45] = target: Neu5Ac(a2-8)Neu5Ac(a2-8)Neu5Ac
# How it was run: as §1
# [46] = target: Neu5Ac(a2-8)Neu5Ac(a2-8)Neu5Ac(a2-3)Gal(b1-4)Glc
# How it was run: as §1
# [47] = target: Neu5Ac(a2-8)Neu5Ac(a2-8)Neu5Ac(a2-3)[GalNAc(b1-4)]Gal(b1-4)Glc
# How it was run: as §1
# [48] = target: Neu5Ac(b1-6)GalNAc
# How it was run: as §1
# [49] = target: Neu5Ac(b2-6)Gal(b1-4)GlcNAc
# How it was run: as §1
# [50] = target: Neu5Ac9Ac(a2-6)Gal(b1-4)GlcNAc
# How it was run: as §1
# [51] = target: Neu5Gc(a2-3)Gal(b1-3)GlcNAc
# How it was run: as §1
# [52] = target: Neu5Gc(a2-3)Gal(b1-3)[Fuc(a1-4)]GlcNAc
# How it was run: as §1
# [53] = target: Neu5Gc(a2-3)Gal(b1-4)Glc
# How it was run: as §1
# [54] = target: Neu5Gc(a2-3)Gal(b1-4)GlcNAc
# How it was run: as §1
# [55] = target: Neu5Gc(a2-3)Gal(b1-4)[Fuc(a1-3)]GlcNAc
# How it was run: as §1
# [56] = target: Neu5Gc(a2-6)Gal(b1-4)GlcNAc
# How it was run: as §1
# [57] = target: Neu5Gc(a2-6)GalNAc
# How it was run: as §1
binder,measurement,setting,value
"Siglec-G (Mus musculus), Q80ZE3 (protein) MSLLLFLLSFLLDGPQGQMESYFLQVQRIVKAQEGLCIFVPCSFSSPEGKWLNRSPLYGYWFKGIRKPSLSFPVATNNKDKVLEWEARGRFQLLGDISKKNCSLLIKDVQWGDSTNYFFRMERGFERFSFKEEFRLQVEALTQKPDIFIPEVLEPGEPVTVVCLFSWTFNQCPAPSFSWMGDAVSFQESRPHTSNYSVLSFIPGLQHHDTELTCQLDFSRMSTQRTVRLRVAYAPRSLAISIFHDNVSVPDLHENPSHLEVQQGQSLRLLCTADSQPPATLSWVLEDQVLSWSSPVGSRTLALELPWVKAGDSGHYTCQAENRLGSQQHTLDLSVLYPPQDLRVTVSQANRTVLEILRNAISLPVLEGQSLCLVCVTYSNPPANVSWAWVTQTLIPIQSSEPGVLELPLVQREHEGEFTCAAQNPLGAQRISLSLSVHYPPQMSSPSCSWEAKGLHCNCSSRAWPAPSLRWRLGEGLLEGNSSNASFTVTFSSLGPWVNSSLSLLQELGPSLWLSCESWNTHGAQTTSVLLLPDKDSATAFSKGAVLGFGITALLALCLIVVIVKTLQKKGTQEEPSRPKLSRGSTILDYINVVPKTRSLARNWKAEPDAPSRSSPLDTHFPKPKKKQKDPHFTYPGCPDPTSSSQVPVSENNPEELHYAALNFSRLRLQETQDPQDTYSDYTEVRVH",glycan array binding signal (z-score),[1],0.07
same,glycan array binding signal (z-score),[2],0.326
same,glycan array binding signal (z-score),[3],-0.171
same,glycan array binding signal (z-score),[4],-0.025
same,glycan array binding signal (z-score),[5],-0.154
same,glycan array binding signal (z-score),[6],0.542
same,glycan array binding signal (z-score),[7],-0.004
same,glycan array binding signal (z-score),[8],-0.045
same,glycan array binding signal (z-score),[9],0.018
same,glycan array binding signal (z-score),[10],-0.094
same,glycan array binding signal (z-score),[11],0.211
same,glycan array binding signal (z-score),[12],-0.08
same,glycan array binding signal (z-score),[13],-0.095
same,glycan array binding signal (z-score),[14],0.414
same,glycan array binding signal (z-score),[15],-0.222
same,glycan array binding signal (z-score),[16],-0.048
same,glycan array binding signal (z-score),[17],-0.371
same,glycan array binding signal (z-score),[18],0.903
same,glycan array binding signal (z-score),[19],-0.157
same,glycan array binding signal (z-score),[20],-0.188
same,glycan array binding signal (z-score),[21],0.007
same,glycan array binding signal (z-score),[22],-0.195
same,glycan array binding signal (z-score),[23],0.063
same,glycan array binding signal (z-score),[24],-0.233
same,glycan array binding signal (z-score),[25],0.045
same,glycan array binding signal (z-score),[26],-0.207
same,glycan array binding signal (z-score),[27],0.188
same,glycan array binding signal (z-score),[28],1
same,glycan array binding signal (z-score),[29],-0.019
same,glycan array binding signal (z-score),[30],-0.195
same,glycan array binding signal (z-score),[31],-0.263
same,glycan array binding signal (z-score),[32],-0.37
same,glycan array binding signal (z-score),[33],-0.305
same,glycan array binding signal (z-score),[34],-0.239
same,glycan array binding signal (z-score),[35],-0.146
same,glycan array binding signal (z-score),[36],-0.259
same,glycan array binding signal (z-score),[37],-0.232
same,glycan array binding signal (z-score),[38],-0.434
same,glycan array binding signal (z-score),[39],-0.007
same,glycan array binding signal (z-score),[40],-0.134
same,glycan array binding signal (z-score),[41],-0.259
same,glycan array binding signal (z-score),[42],-0.286
same,glycan array binding signal (z-score),[43],-0.205
same,glycan array binding signal (z-score),[44],-0.236
same,glycan array binding signal (z-score),[45],1.22
same,glycan array binding signal (z-score),[46],-0.228
same,glycan array binding signal (z-score),[47],-0.348
same,glycan array binding signal (z-score),[48],-0.272
same,glycan array binding signal (z-score),[49],-0.286
same,glycan array binding signal (z-score),[50],-0.105
same,glycan array binding signal (z-score),[51],-0.076
same,glycan array binding signal (z-score),[52],0.241
same,glycan array binding signal (z-score),[53],-0.022
same,glycan array binding signal (z-score),[54],-0.27
same,glycan array binding signal (z-score),[55],-0.097
same,glycan array binding signal (z-score),[56],-0.344
same,glycan array binding signal (z-score),[57],-0.338
